Screen size: about 310,000 compounds; about 14,000 (4.5%) showed an effect of 50% or more. Effects have a minus sign here. Some of the results follow.
Target: human ether-à-go-go-related gene (hERG) potassium channel (human, UniProt Q12809)
Experiment: primary screen, population patch clamp on CHO cells stably expressing hERG
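Further: peak tail current of the secondary pulse compared with the same well before compound.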

human ether-à-go-go-related gene (hERG) potassium channel, sequence (Q12809 whole entry, looked up): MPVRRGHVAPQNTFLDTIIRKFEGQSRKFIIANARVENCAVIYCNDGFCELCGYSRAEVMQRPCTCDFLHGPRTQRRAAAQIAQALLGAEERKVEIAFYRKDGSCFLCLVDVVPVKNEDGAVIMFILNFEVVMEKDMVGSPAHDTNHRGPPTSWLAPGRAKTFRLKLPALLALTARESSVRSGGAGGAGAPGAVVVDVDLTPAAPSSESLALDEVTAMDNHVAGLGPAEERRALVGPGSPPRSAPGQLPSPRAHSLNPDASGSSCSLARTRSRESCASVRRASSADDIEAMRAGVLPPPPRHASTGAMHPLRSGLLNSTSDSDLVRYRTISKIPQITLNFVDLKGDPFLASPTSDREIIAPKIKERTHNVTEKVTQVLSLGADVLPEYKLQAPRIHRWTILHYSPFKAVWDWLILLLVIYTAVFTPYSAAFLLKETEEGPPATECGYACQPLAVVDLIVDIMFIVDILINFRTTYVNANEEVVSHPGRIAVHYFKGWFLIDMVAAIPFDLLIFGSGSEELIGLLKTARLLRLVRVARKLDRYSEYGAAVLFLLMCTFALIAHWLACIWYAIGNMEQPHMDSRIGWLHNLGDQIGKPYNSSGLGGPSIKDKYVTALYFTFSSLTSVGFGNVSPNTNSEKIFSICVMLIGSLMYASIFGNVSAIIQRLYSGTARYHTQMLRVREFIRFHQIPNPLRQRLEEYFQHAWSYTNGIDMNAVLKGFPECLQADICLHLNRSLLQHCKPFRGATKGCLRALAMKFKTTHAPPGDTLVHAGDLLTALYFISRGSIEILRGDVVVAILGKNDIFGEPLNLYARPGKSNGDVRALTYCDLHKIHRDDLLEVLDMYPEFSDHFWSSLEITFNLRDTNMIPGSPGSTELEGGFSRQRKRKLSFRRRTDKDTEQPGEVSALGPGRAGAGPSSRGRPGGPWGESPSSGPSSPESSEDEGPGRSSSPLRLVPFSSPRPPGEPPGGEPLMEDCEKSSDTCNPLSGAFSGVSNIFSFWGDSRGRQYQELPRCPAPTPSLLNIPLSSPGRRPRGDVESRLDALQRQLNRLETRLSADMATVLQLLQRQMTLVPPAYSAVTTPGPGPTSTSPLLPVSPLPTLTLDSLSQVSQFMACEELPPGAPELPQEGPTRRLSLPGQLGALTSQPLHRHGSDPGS

SMILES	hERG current change (%, negative = inhibition) at 10uM [%]
O=C(CSc1nnc(Nc2ccccc2)s1)Nc1cccnc1Cl	-6.39
COCCCNC(=O)CSc1c2c(nc3ccc(Cl)cc13)CCCC2	5.57
CCN(Cc1ccccc1)S(=O)(=O)c1cc(C(=O)OC)n(C)c1	-32.9
CCOc1ccccc1NC(=O)CCCCCN1C(=O)[C@@H]2Cc3ccccc3CN2C1=O	-42.6
C1=C(C(c2nnnn2C2CCCCC2)N2CCCCC2)COc2ccccc21 (stereo not drawn)	-0.938
CCn1cc(C(=O)O)c(=O)c2cc(F)c(N3CCN(C(=S)Nc4ccccc4OC)CC3)cc21	-4.39
CCN=C(NCC)SC1CC(=O)N(c2cccc(OCC)c2)C1=O (stereo not drawn)	2.63
CCC1(c2ccccc2)NC(=O)N(CC(=O)N(C)CC(=O)Nc2ccc(F)c(F)c2F)C1=O (stereo not drawn)	-14.7
CC(Nc1n[nH]c(=O)[nH]c1=O)C(=O)N/N=C/c1ccccc1 (stereo not drawn)	1.27
O=C(NNC(=O)c1ccccc1F)c1cccs1	11.2
O=C(NCCc1cn2ccccc2n1)C1CCCCC1	-7.64
COc1ccc(OCC(=O)Nc2ccc3c(c2)nc(CN2CCN(C(C)=O)CC2)n3C)cc1.Cl	-25
CC(C)c1ccccc1NC(=O)COC(=O)c1cccnc1	12.9
CC1(C)CC(=O)C2=C(C1)N(c1ccccc1)C(N)=C(C#N)C2c1cccnc1 (stereo not drawn)	-4.31
Cn1c(N)c(C#N)c2c(c1=S)COC(C)(C)C2	4.46
CC(=O)Nc1ccc(NC(=O)Cn2cc3c(n2)CCCC3)cc1	4.96
c1ccc(-c2nnc(SCC3CCCCO3)nc2-c2ccccc2)cc1 (stereo not drawn)	12.2
O=C(NCC1CCCO1)c1ccc([N+](=O)[O-])s1 (stereo not drawn)	25.4
COc1cccc(C(=O)OCC(=O)NCCCc2ccccc2)c1	-2.08
COc1ccc(CCNC(=O)C(=O)NCc2ccc(Cl)cc2)cc1OC	19
NS(=O)(=O)c1ccc(NC(=O)CSc2n[nH]c(=O)n2Cc2ccccc2)cc1	26.3
COc1cccc(C2=CC(c3ccccc3)n3ncnc3N2)c1 (stereo not drawn)	-2.39

SMILES	hERG current change (%, negative = inhibition) at 10uM [%]
O=C(NN1CCCCC1)c1ccccc1	3.71
COc1ccc2c(c1)c(C(=O)N/N=C/c1ccccc1Cl)c(C)n2C	-4.06
CC(=O)N1CCc2c(sc(NC(=O)C3CC3)c2-c2nc3ccccc3s2)C1	6.41
O=C(CNC(=O)c1cccs1)NCC(=O)OCc1cccc(Cl)c1	-14.5
Cc1nc(-c2ccc(F)cc2)c(CC(=O)NCC(=O)Nc2ccc(F)c(F)c2)s1	-34.8
COc1ccc(S(=O)(=O)N2CCC(C(=O)NC3CCCC3)CC2)cc1OC	27.8
Cc1ccc(-n2c(=O)[nH]cc(C(=O)N3CCc4ccccc43)c2=O)cc1C	1.95
COC(=O)C1CN(C(=O)COc2ccc(Cl)cc2C)c2ccccc2O1 (stereo not drawn)	13.2
O=S(=O)(c1cccc(C(F)(F)F)c1)N1CCN(C(=S)NC2CC2)CC1	5.84
Cc1[nH]nc2c1C(C1CC=CCC1)C(C#N)=C(N)O2 (stereo not drawn)	5.88
Cc1ccc(-n2nc(-c3cccnc3)cc2C(=O)N2CCOCC2)c(C)c1	-14.4
Cc1ccc(NC(=S)/C(=C(\[O-])c2ccc(C)c([N+](=O)[O-])c2)[n+]2ccccc2)cc1C	-6.87
Cn1c(=O)c2c(nc(CN3CCOCC3)n2CCc2ccccc2)n(C)c1=O	7.53
CCn1cc(C(=O)NCCCN(C)C)c(=O)c2cc(F)c(N3CCN(C)CC3)cc21.Cl	9.27
CC(NCC(O)COCc1ccc(Cl)cc1)c1ccccc1.Cl (stereo not drawn)	-43.1
COc1ccc(C(=O)NN2CCOCC2)cc1	-32.6
OCC[C@H]1C[C@H](O)[C@@H](O)[C@@]2(OCc3ccccc32)O1	8.35
CCOc1ccccc1OCCCOc1ccc([N+](=O)[O-])cc1Cl	15.6
Cn1cnnc1SC1c2cccc3cccc(c23)C1NS(=O)(=O)c1ccccc1 (stereo not drawn)	-17.5
COc1ccc(Cn2nnnc2C(c2cc(OC)ccc2OC)N2CCC(C(N)=O)CC2)cc1 (stereo not drawn)	-0.796
Br.CCCC1CC(C)(C(=O)CSc2n[nH]c(-c3ccccc3)n2)OC1=O (stereo not drawn)	-30.3
COc1cc(OC)c(Cl)cc1N	7.89

SMILES	hERG current change (%, negative = inhibition) at 10uM [%]
CCC(=O)NC(C)C(c1cccs1)N1CCN(c2ccccc2)CC1 (stereo not drawn)	5.24
CCc1cc2c(=O)n(Cc3ccco3)c(SCC(=O)NCC3CCCO3)nc2s1 (stereo not drawn)	-70.2
CCCOc1ncnc2c1[nH]c1ccccc12	-11.8
CC(O)c1cccc(NC(=O)Nc2cccc(NC(=O)Nc3cccc(C(C)O)c3)c2)c1 (stereo not drawn)	12.1
CC1CCc2sc(C(=O)NCCCn3ccnc3)cc2C1 (stereo not drawn)	-1.07
O=C(Nc1ccccc1)c1nnn(Cc2ccccc2)c1NC(=O)C(F)(F)F	-7.45
COc1ccc(OC)c(N(CC(=O)NCCSCc2ccco2)S(=O)(=O)c2ccc(OC)c(OC)c2)c1	-22.6
O=C(Nc1cccc(Cl)c1)/C(=C\c1cccnc1)NC(=O)c1ccco1	-67
C=CCOc1ccc(/C=C2\N=C(C)OC2=O)cc1OC	28.8
COc1ccc(C(=O)CCC(=O)N2CCN(c3cccc(Cl)c3)CC2)cc1	-38.8
O=C(O)CSCC(=O)N1CCN(c2ccnc3cc(Cl)ccc23)CC1	9.15
N#Cc1ccccc1OCC(O)CS(=O)(=O)c1ccccc1 (stereo not drawn)	1.8
COCCN(C(=O)CCc1nnc(CCc2c[nH]c3ccccc23)o1)C(C)C	12.5
Cc1cc(C)n(CC(C)NC(=O)CCc2nnc(CCc3ccccc3)o2)n1 (stereo not drawn)	21.4
O=C(CC(c1ccccc1)c1ccccc1)Nc1ccc(C(=O)O)cc1	16
Cc1cc(C)cc(C(=O)N(NC(=O)Nc2ccc(Cl)cc2)C(C)(C)C)c1	7.26
CC(NC(=S)Nc1ccc(S(=O)(=O)N2CCOCC2)cc1)C1CC2CCC1C2 (stereo not drawn)	14.7
COc1cc(S(=O)(=O)Nc2ccccc2C(=O)N2CCCCC2)ccc1NC(C)=O	-9.47
CC(=O)N1CCN(S(=O)(=O)c2ccc3c(c2)CC(=O)N3)CC1	-7.6
COc1ccc(NC(=O)c2nc(C)n(-c3ccc([N+](=O)[O-])cc3)n2)cc1	-44.9
COc1ccc(C(=O)CSc2ccc(-c3ccc(C)cc3)nn2)cc1	17.6
Cc1oc2cc3oc(=O)c(CCC(=O)N(C)CC(=O)O)c(C)c3cc2c1C	6.84

SMILES	hERG current change (%, negative = inhibition) at 10uM [%]
COCCNC(=O)C(c1ccc(C)cc1)N(C(=O)CCC(=O)Nc1ccccn1)c1ccccc1C (stereo not drawn)	6.03
Cc1ccc(OCCn2ccnc2)c(C)c1	6.52
Cc1ccc(Cn2c(=O)n(CCC(=O)NCc3ccc4c(c3)OCO4)c(=O)c3ccccc32)cc1	-12.5
Cc1nc(C(=O)NCc2ccccc2)sc1C1(C)CC(c2cccc([N+](=O)[O-])c2)=NO1 (stereo not drawn)	-31.4
CN(C)S(=O)(=O)c1cccc(NC(=O)c2cccc(NS(=O)(=O)c3ccccc3)c2)c1	20.1
CCOc1ccccc1C(=O)N/N=C/c1cccc2cccnc12	-0.673
CCOC(=O)c1c(NC(=O)CC2SC(=NC)N(C)C2=O)sc(C)c1C (stereo not drawn)	-4.78
CCOC(=O)c1cc(-c2ccc(OC)cc2)nn1-c1ccc(C(=O)O)cc1	16.3
CC1=NN(C(=O)c2nn(C)cc2Br)C(O)(C(F)(F)F)C1 (stereo not drawn)	10.3
CCCCN(Cc1ccccc1)S(=O)(=O)c1ccc2[nH]c(=O)oc2c1	5.06
CCCCn1c(O)c(C(C)=Nc2ccc(OCC)cc2)c(=O)[nH]c1=O	-13.9
CN(CC(=O)Nc1ccccc1C(F)(F)F)C(=O)c1cccc(-n2cccc2)c1	-14
O=C(COc1coc(CN2CCc3ccccc3C2)cc1=O)Nc1ccc(Cl)cc1	-1.22
CSc1nnc2c(n1)OC(c1cccn1C)N(C(C)=O)c1ccccc1-2 (stereo not drawn)	-10.1
COc1ccc(NS(=O)(=O)c2cccc(C(=O)NCC(c3ccc(F)cc3)N3CCOCC3)c2)cc1 (stereo not drawn)	-29
Cc1ccc(NC(=O)CCC(=O)OC(C(=O)c2ccc(C)c(C)c2)c2ccccc2)c(C)c1 (stereo not drawn)	-3.71
Cc1ccccc1-n1c(=O)cc(N2CCN(C(=O)c3ccco3)CC2)[nH]c1=O	1.89
CCC(C)c1ccc(NC(=S)NCc2ccccn2)cc1 (stereo not drawn)	-3.97
CC1=NNC(=O)C1Cc1ccc(F)cc1 (stereo not drawn)	9.34
CCN(CCNC(=O)C1=C(C)C(=O)OC12CCC(C)CC2)c1ccccc1 (stereo not drawn)	-2.08
COc1ccc(S(=O)(=O)NC2CC2)cc1-n1cnnn1	4.63

From publication PMC4336329 (PLoS ONE, 2015)
